Test results as given in the supplement of paper PMC3334620.
Whole data set: some 33,000 sequences, median “E-score (-0.5 to 0.5)” near -0.041, cut for the highest 2% near 0.37. This is one part of the list.

Each sequence was assayed against T1, Ecm22 (UniProt Q05958) (assay: PBM E-score (8-mer binding enrichment) (E-score (-0.5 to 0.5)); higher = stronger / more preferred TF binding; most listed sequences are background and not binding sites). Details: protein concentration: 200 nM; construct: GST-full length.
T1 sequence: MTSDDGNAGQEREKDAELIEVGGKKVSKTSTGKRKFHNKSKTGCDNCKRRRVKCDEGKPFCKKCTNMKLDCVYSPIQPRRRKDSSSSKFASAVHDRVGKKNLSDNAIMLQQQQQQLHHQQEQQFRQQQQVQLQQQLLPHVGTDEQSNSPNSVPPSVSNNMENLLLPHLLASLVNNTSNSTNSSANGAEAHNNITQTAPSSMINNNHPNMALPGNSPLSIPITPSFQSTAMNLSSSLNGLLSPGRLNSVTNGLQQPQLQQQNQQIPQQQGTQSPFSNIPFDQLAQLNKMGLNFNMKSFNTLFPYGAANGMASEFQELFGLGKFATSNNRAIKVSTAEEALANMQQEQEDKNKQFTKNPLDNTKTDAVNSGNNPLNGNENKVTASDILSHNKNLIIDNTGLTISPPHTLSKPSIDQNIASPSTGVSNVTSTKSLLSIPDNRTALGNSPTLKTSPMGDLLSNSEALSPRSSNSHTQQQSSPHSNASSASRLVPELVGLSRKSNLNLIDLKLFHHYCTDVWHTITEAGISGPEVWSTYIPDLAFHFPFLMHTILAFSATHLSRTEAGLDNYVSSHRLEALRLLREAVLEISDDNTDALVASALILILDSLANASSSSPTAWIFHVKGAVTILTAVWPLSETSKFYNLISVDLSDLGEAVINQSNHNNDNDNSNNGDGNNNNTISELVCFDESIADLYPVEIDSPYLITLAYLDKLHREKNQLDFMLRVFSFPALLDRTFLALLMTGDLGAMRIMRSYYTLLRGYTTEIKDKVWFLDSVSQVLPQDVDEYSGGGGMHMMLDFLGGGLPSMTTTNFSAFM
Outline: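 Detection of bound protein used fluorescent anti-GST, with scans normalised by masliner. The proteins were GST-tagged yeast transcription factors applied at about 100-200 nM to universal all-10-mer Agilent arrays made double-stranded by primer extension. Each ungapped eight-base word, pooled with its reverse complement, was scored with an E-score from the Universal PBM Analysis Suite.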

Sequence	PBM E-score
AGGTGCGA	0.233
GCTGCTGA	0.0691
AGAAAGAA	-0.0521
AACTGCGA	0.0201
AACCCCAG	-0.295
CTGGAAGA	-0.138
ATTTTTCC	0.144
AACCCCCG	-0.185
CTAACGTC	-0.1
CGCTGGAG	0.05
CACGAACG	0.312
ACCGCCTG	-0.112
ATCTACCA	-0.108
GAGGACTA	-0.113
GAGTGACA	-0.0577
ATGCCTAA	-0.271
GCGGGAAC	0.157
CCCACCAC	-0.129
GATGGTGA	-0.0723
AACCTCCA	-0.265
GACTGCGA	-0.257
AGGGTCGC	0.0776
GAACGAGC	0.483
AATAAGCA	0.0445
ACGCCAAG	-0.113

Sequence	PBM E-score
CCGGGCTC	0.00213
ACTGGGGA	-0.183
ATACGCAA	0.239
AACTGGAC	-0.085
AGTCTTGA	-0.263
AAGAAGCG	-0.031
CGATTCAC	0.12
AATTATCA	0.073
AGGACACG	-0.0906
ACTAACCG	0.238
ATAAGAAA	-0.0976
ACCCGAGT	0.225
TACCTACA	-0.0657
AACTTTCC	-0.176
TTATCGAA	0.0613
CTAACTCC	-0.0929
ATCGTAGA	0.272
AACGAGAA	0.424
AACGAAAA	0.364
CTTACGTA	0.163
TAGTCGGA	0.0965
ATGCTTTC	-0.0199
AAAAGAAG	-0.15
GGTATTTA	-0.00022
GAACTTGA	-0.0118

Sequence	PBM E-score
ACGGACCG	0.203
AGGTGGTG	-0.135
CTATAGAA	-0.0568
GATGATCC	0.111
CCGGAGAG	-0.097
CTAACCGC	0.0805
ACTCGGGC	-0.0393
ATTTCCCC	-0.11
GTTGTCGA	-0.059
GATGCACA	0.0713
ATGATGTA	0.0103
AGCACATA	-0.117
ATGGATGG	-0.0745
CGGCTCGA	0.101
ATTACCGG	-0.0764
TCTAGTAA	-0.124
CATCCTGG	-0.134
ACAGCCGT	0.11
CGTAGGAA	0.196
ATTAGCAG	-0.174
CCATTGGC	-0.269
AGTTTCGA	-0.16
TCATTAGA	0.0734
AGACCTGG	-0.309
TCGCGCCA	-0.128

Sequence	PBM E-score
ATTACTAC	0.129
ATGCTAGA	-0.128
ACCGAACC	0.0703
GGCGTATA	0.359
AAGTTATA	0.0296
ACGGAGAC	0.0742
GCTAGCGA	-0.039
ACAAAGCG	0.0907
GATTAACA	-0.00865
CGGAGTGC	0.0703
AGCGTTTG	0.031
GGGCGGGA	0.0564
AGCAGCAA	-0.194
ACAGGGGT	-0.174
ACGACCGT	0.341
GCAGGCAC	-0.202
AGGATCGC	-0.0686
CGAGTACA	0.246
ACCAACAC	0.107
CCGTCCAA	-0.192
ACCCTTAA	-0.0578
ACTACCCT	-0.262
GACTCCAC	-0.35
AGCTGCAC	-0.162
CTAAGAAA	0.128

Sequence	PBM E-score
AACTCACA	-0.104
CCAACCAC	-0.0514
TCGGGCCA	-0.0681
ACTCTTTG	-0.116
ACTTACAT	0.00759
CCCGCTAC	0.214
AGAAACAC	0.0005
ACCATAAC	0.0883
GACGTCAC	-0.163
AAAAGGAT	-0.0106
CACGTAAA	0.106
CCTCTGTC	0.0319
CTCAGTAC	0.00028
ACTGGCTA	-0.332
AGCGTGCC	-0.145
GAGTTCCA	0.00497
CGCCCCAA	-0.0098
GCTGTCCC	0.14
CGTTTCTC	0.295
AGGAGTAG	-0.181
AGATAGGA	-0.244
ACATCGAA	0.0967
CAACAAGA	-0.0196
CCACCTAC	-0.381
CATAAAAG	-0.0794

Sequence	PBM E-score
AACTCCAA	-0.166
AGGACCAA	-0.168
GCTTAGAA	0.00571
AATCCATC	-0.0103
CTGTAGCA	-0.156
CAAAGTTA	-0.0884
GGCTCGGA	0.0976
CAAGCGAA	0.257
ATTTGGGG	-0.042
TCGGCCCA	-0.0933
ATCTTAAT	-0.0808
CTGGTTAC	-0.145
AGCAACTA	0.0519
GAGGCGAC	0.00633
CCTTAGTC	-0.193
TCGTTACA	0.293
AAGGCCGG	-0.156
GGTAGGGA	-0.154
CCCTTAAA	-0.125
ATTTCCAG	-0.151
CCCATATC	0.00408
GCTTCTAA	-0.183
CGCAACAA	0.0504
AAAACAAC	-0.286
CACATAGG	-0.283

Sequence	PBM E-score
CCTCCATC	0.00271
CAGGTTGA	-0.111
ATTGCTTC	0.0317
AAAATAAG	-0.0771
CGAACGCA	0.242
GCGCCTCA	-0.235
CACTCAAG	-0.14
ACATTTCT	0.0423
AGGGCAAC	-0.236
CCATGCAG	-0.246
ATCGCGGC	0.107
AACCGGCA	-0.114
AAGACCGC	-0.156
TCCGGAGA	-0.168
ACCAACTA	0.0214
CCACCTAG	-0.204
CATCATCG	0.032
GCTGGGCA	-0.155
TAGGCAGA	-0.0781
AGGTCCTC	0.0692
AGCGTGAA	0.0147
ATCTGACC	0.0893
